Among all 360,000 compounds or so, about 520 (0.14%) were called active. Inconclusive results, whose numbers are uncertain, are shown with a selection of clear calls. Calls come from the whole dose curve; as a rule, active = well fitted inhibition curve with a large enough effect; inconclusive = small, poorly fitted or top-dose-only effect; inactive = no such curve, though single readings can be large or run the other way. No potency is given beside an inconclusive call; the fits are too rough.
Target: Rap guanine nucleotide exchange factor 3 (Homo sapiens) (UniProt O95398)
Sequence of UniProt O95398 (O95398 whole entry, looked up): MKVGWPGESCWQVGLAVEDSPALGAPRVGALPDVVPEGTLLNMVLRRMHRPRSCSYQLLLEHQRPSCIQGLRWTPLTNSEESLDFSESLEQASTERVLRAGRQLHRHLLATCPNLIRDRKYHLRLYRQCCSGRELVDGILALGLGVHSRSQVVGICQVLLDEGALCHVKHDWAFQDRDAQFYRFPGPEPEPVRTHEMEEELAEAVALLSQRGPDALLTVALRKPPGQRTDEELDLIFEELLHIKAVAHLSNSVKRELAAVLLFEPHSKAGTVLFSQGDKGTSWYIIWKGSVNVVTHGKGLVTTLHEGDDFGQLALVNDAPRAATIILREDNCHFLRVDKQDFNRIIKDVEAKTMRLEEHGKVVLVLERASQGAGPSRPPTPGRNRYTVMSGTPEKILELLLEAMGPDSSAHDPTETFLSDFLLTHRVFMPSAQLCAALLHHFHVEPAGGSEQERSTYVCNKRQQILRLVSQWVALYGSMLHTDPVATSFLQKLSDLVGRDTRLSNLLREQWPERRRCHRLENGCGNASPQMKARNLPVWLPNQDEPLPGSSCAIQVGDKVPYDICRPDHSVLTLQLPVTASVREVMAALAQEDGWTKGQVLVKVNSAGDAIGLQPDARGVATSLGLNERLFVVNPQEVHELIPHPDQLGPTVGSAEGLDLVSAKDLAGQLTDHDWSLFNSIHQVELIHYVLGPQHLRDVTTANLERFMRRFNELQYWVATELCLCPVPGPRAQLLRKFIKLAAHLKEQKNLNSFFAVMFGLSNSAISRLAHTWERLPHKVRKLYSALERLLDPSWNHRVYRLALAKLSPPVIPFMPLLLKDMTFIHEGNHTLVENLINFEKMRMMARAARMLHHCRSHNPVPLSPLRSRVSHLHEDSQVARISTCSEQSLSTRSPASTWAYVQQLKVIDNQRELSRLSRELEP
Assay: qHTS for Antagonist of cAMP-regulated guanine nucleotide exchange factor 3 (EPAC1): primary screen; note: nearly all actives have a fitted effect of over 50% in size;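 for activity change, negative = inhibition: plate controls were vehicle for no effect and positive control for full effect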
Details: EPAC1 GEF assay, Rap1b-BODIPY-GDP exchange fluorescence; activity change, negative = inhibition: at 115 µM (top of the series)
Potency is the fitted concentration of half-maximal effect; tags give direction and shape of the fitted curve.

SMILES | Potency | activity change, negative = inhibition
O=C(CCCCCn1c(=O)[nH]c2ccsc2c1=O)NCc1ccc(F)cc1 | inconclusive [inhibitor, single point] | 
Cc1occc1C(=O)NNC(=O)C1CCCC1 | inactive | 
COc1cccc(C(=O)NCCCN2CCN(CCCNC(=O)c3cccc(OC)c3)CC2)c1 | inactive | 
O=C(CSc1nnc(-c2c[nH]c3ccccc23)o1)c1ccc(-c2ccccc2)cc1 | inconclusive [inhibitor, full curve, poor fit] | 
Cc1ccc(/C=C2\Oc3c(ccc(O)c3CN3CCN(CCO)CC3)C2=O)cc1 | inactive | 
COc1cc(/C=C2\CCn3c2nc2cc(C(=O)O)ccc2c3=O)ccc1OC(F)F | inconclusive [inhibitor, partial curve] | 
CC(=O)Nc1ccc(S(=O)(=O)NC2=C(N3CCN(c4ccc(F)cc4)CC3)C(=O)c3ccccc3C2=O)cc1 | inactive | 
O=[N+]([O-])c1cc([N+](=O)[O-])c2nonc2c1Nc1ccccc1O | inactive | 
COc1ccc(C)cc1N(CC(=O)NC1CCCC1)C(=O)Cn1nnc(-c2ccc(C)o2)n1 | inactive | 
COc1ccc(C2/C(=C(/O)c3ccccc3)C(=O)C(=O)N2CO)cc1 (configuration not stated) | inconclusive [inhibitor, full curve, poor fit] | 
OCCNc1nnc(-c2ccccc2)c(-c2ccccc2)n1 | inactive | 
COc1ccc(/C=N/Nc2cc(=O)n(C)c(=O)n2C)cc1OC | inactive | 
COc1ccc(CNS(=O)(=O)c2ccc(S(=O)(=O)NC3CC3)cc2)cc1 | inconclusive [inhibitor, full curve, poor fit] | 
Cc1nn(-c2ccccc2)c2nc(-c3ccccc3)cc(C(=O)N3CCOCC3)c12 | inconclusive [inhibitor, single point] | 
C=CCn1c(=NC(=O)C2COc3ccccc3O2)sc2cccc(OC)c21 (configuration not stated) | inconclusive [inhibitor, partial curve] | 
Cc1cc(C)nc(SCc2ccc(C(=O)NNC(=O)Nc3cccc(Cl)c3)cc2)n1 | inconclusive [inhibitor, partial curve] | 
O=C(N/N=C/C=C/c1ccccc1)C1CC1c1ccccc1 (configuration not stated) | inconclusive [inhibitor, single point] | 
COCc1cc(=O)[nH]c(-c2ccc(C(F)(F)F)cc2)n1 |  | inconclusive: -30.5% [inhibitor]
Cc1cc(C)c(NS(=O)(=O)c2ccc3c(c2)NC(=O)CCS3)c(C)c1 | inconclusive [inhibitor, partial curve, poor fit] | 
O=C(/C=C/c1cccs1)Nc1scc(-c2ccccc2)c1C(=O)O | inconclusive [inhibitor, full curve] | 
Cc1ccc(C(=O)NC(C)c2ccc(-n3ccnc3)cc2)cc1 (configuration not stated) | inconclusive [inhibitor, single point] | 
Cc1nc(C)c(-c2csc(Nc3ccc(O)c(C(=O)O)c3)n2)s1 | inconclusive [inhibitor, full curve] | 
CNCc1ccccc1Sc1ccc(O)c(O)c1 | inactive | 

SMILES | Potency | activity change, negative = inhibition
Cc1cccc(C(C)(C)C)c1OCCOCCN1CCCC1 | inconclusive [inhibitor, partial curve] | 
CC(C)(C)c1ccc(/C=N/Nc2nncn2N)cc1 | inconclusive [inhibitor, partial curve] | 
CC(CCN1CCC(n2nccc2NC(=O)c2ccccc2Cl)CC1)c1ccccc1 (configuration not stated) | inactive | 
OCCC1CN(C2CCC2)CCN1Cc1ccc(F)c(F)c1 (configuration not stated) | inactive | 
CCOC(=O)C(C(=O)OCC)N(C#N)c1nc(N(C)C)nc(N(C)C)n1 | inconclusive [inhibitor, single point] | 
CCCN1CCC(=O)N([C@H](CO)c2ccccc2)CC1 | inconclusive [inhibitor, single point] | 
Cc1cc(C)c2c(N)c(C(=O)NN3CC(=O)N(c4ccccc4)CC3=O)sc2n1 | inconclusive [inhibitor, single point] | 
O=C1c2cccc3cc([N+](=O)[O-])cc(c23)C(=O)N1CCN1CCCC1 | inactive | 
O=C(NC(=S)N1CCN(c2c(Cl)cccc2[N+](=O)[O-])CC1)c1cccs1 |  | inconclusive: -32.7% [inhibitor]
C(=C\c1ccccc1)/CN1CCN(C(c2cccs2)c2nnnn2C2CCCC2)CC1 (configuration not stated) | inconclusive [inhibitor, single point] | 
CCCCCCCCCCCC1=C(O)C(=O)C=C(O)C1=O | inconclusive [inhibitor, partial curve] | 
COc1cccc2c(SCC(=O)N/N=C/c3ccc(O)c(O)c3)cc(C)nc12 | inconclusive [inhibitor, partial curve, poor fit] | 
Cc1ccc(-n2ncc3c(N4CCC5(CC4)OCCO5)ncnc32)c(C)c1 |  | inconclusive: -15% [inhibitor]
Cc1ccc(/C=[N+](\[O-])c2ccc(N(C)C)cc2)c2nsnc12 | inconclusive [inhibitor, partial curve, poor fit] | 
COc1ccc(CNc2ncnc3c2[nH]c2ccccc23)cc1 | inconclusive [inhibitor, partial curve, poor fit] | 
O=C1C2C(c3ccccc3)C=CC(c3ccccc3)C2C(=O)N1c1ccccn1 (configuration not stated) | inconclusive [inhibitor, partial curve, poor fit] | 
O=C(/C=C/c1ccco1)NC(=S)Nc1ccccc1N1CCOCC1 | inconclusive [inhibitor, single point] | 
Cc1cccc(C)c1-n1nnnc1SCc1nc(N)nc(N(C)C)n1 | inconclusive [inhibitor, full curve, poor fit] | 
CCCCN(C)C(=O)C1CCN(Cc2ccc(OCc3ccccc3)cc2)CC1 | inactive | 
COc1cccc(/C=C2/CN(C)CC3=C2OC(N)=C(C#N)C3c2cccc(OC)c2)c1 (configuration not stated) | inactive | 
COC(=O)c1c(-c2ccccc2)oc2c1C(OCCO)CCC2 (configuration not stated) | inactive | 
CNC(=S)Nc1ccc(N2CCN(c3ccc(C(F)(F)F)cn3)CC2)nc1 | inconclusive [inhibitor, partial curve] | 
O=C(O)c1ccc(/C=N/NC(=O)c2ccc(CN3c4cccc5cccc(c45)S3(=O)=O)cc2)cc1 | inconclusive [inhibitor, single point] | 

SMILES | Potency | activity change, negative = inhibition
COC(=O)c1nnn(CC(=O)NC(=O)Nc2ccccc2)c1C(=O)OC | inconclusive [inhibitor, single point] | 
Cc1noc(C)c1C(=O)Nc1nc(-c2ccccc2Cl)cs1 | inconclusive [inhibitor, single point] | 
CCc1cc(C(=O)Nc2ccc(S(=O)(=O)NC3=NCCCCC3)cc2)sc1C | inconclusive [inhibitor, partial curve, poor fit] | 
Cc1cccc(C(=O)Oc2ccc(/C=N/NC(=O)c3ccccc3O)cc2)c1 | inconclusive [inhibitor, single point] | 
Cc1ccc(S(=O)(=O)N2CC3C(=O)C[C@@H](c4ccccc4)N(S(=O)(=O)c4cccc(Cl)c4)C3CC2c2ccccc2)cc1 (some centres not stated) | inactive | 
CC(C)N(C(=O)[C@H]1C[C@H](CC(=O)NCc2ccco2)C(=O)N2CCc3c([nH]c4cc(-c5ccco5)ccc34)[C@]12C)C(C)C | inconclusive [inhibitor, partial curve, poor fit] | 
CC(/C=N/n1c(-c2ccncc2)n[nH]c1=S)=C\c1ccco1 | inactive | 
CC(C)c1cc(Cn2c3ccccc3c(=O)n2C(C)Cn2cc(-c3ccccc3)nn2)on1 (configuration not stated) | inactive | 
Cc1ccc(C2=NOC(=O)/C2=C\c2ccc(C)o2)cc1 | inconclusive [inhibitor, single point] | 
CC(C)(C)NC(=O)C(c1cccc2ccccc12)n1c(=O)c(-c2cc3ccccc3[nH]2)nc2ccccc21 (configuration not stated) | inactive | 
Cc1ccc2nc(-c3ccncc3)cc(C(=O)Nc3ccc(OC(F)F)cc3)c2c1 | inconclusive [inhibitor, single point] | 
CCOC(=O)C1=C(C)N=c2s/c(=C/c3ccc(OCC(=O)O)cc3)c(=O)n2C1c1cc(OC)c(OC)c(OC)c1 (configuration not stated) | inconclusive [inhibitor, full curve] | 
COc1ccc(N2C(=O)c3ccccc3NC2c2ccc(OC)c(COc3ccccn3)c2)cc1 (configuration not stated) | inactive | 
O=C(Nc1cccc(-c2nn[nH]n2)c1)c1csc2c1CCCC2 | inactive | 
CC(C)(C)c1ccc(-c2nc(C#N)c(N3CCC(C(N)=O)CC3)o2)cc1 | inconclusive [inhibitor, partial curve, poor fit] | 
COC(=O)c1ccc(N2NC(=O)/C(=C/c3cc(OC)c(OC)c(OC)c3)C2=O)cc1 | inactive | 
Cc1ccc(N/C=C/c2onc(C)c2[N+](=O)[O-])cc1 | inactive | 
CCN(CC)S(=O)(=O)c1ccc(NC(=O)Nc2cccc(C(F)(F)F)c2)cc1 | inconclusive [inhibitor, single point] | 
COc1ccc2oc(C(=O)OCc3c(C)noc3C)c(C)c2c1 | inconclusive [inhibitor, full curve, poor fit] | 
CCS(=O)(=O)c1ncc(Cl)c(C(=O)Nc2ccc(S(=O)(=O)N3CCC(C)CC3)cc2)n1 | inconclusive [inhibitor, full curve, poor fit] | 
CCN(CC)CCNC(=O)C1(O)c2cc(Br)ccc2NC(=O)N1c1ccccc1 (configuration not stated) | inactive | 

From PubChem BioAssay AID720709 (National Center for Advancing Translational Sciences (NCATS), 2013)
